According to PubChem BioAssay AID504339 (National Center for Advancing Translational Sciences (NCATS), 2011):
Where “and” joins values, the source holds several entries; their conditions need not be identical. Equal values may be shown once. About 17,000 (4.4%) of roughly 390,000 compounds were called active. The shares of active, inactive and inconclusive entries below differ from those in the screen. Calls follow the shape of the dose curve; as a rule, active = well fitted inhibition curve with a large enough effect; inconclusive = small, poorly fitted or top-dose-only effect; inactive = no such curve, though single readings can be large or run the other way. Potencies of inconclusive entries are doubtful fits and often do not repeat.

biological target: Lysine-specific demethylase 4A (Homo sapiens) (UniProt O75164); test: qHTS Assay for Inhibitors of JMJD2A-Tudor Domain; details: AlphaScreen JMJD2A-Tudor / H3K4me3 peptide binding; activity change, negative = inhibition: at 114 µM (top of the series); also: nearly all actives have a fitted effect of over 50% in size
% is scaled to controls: 0 for no effect and ±100 for the full control effect; potency is read from the fitted curve at half-maximal effect; tags tell the direction and shape of the fitted curve.

UniProt O75164, sequence (O75164 whole entry, looked up, the tested form may be a part): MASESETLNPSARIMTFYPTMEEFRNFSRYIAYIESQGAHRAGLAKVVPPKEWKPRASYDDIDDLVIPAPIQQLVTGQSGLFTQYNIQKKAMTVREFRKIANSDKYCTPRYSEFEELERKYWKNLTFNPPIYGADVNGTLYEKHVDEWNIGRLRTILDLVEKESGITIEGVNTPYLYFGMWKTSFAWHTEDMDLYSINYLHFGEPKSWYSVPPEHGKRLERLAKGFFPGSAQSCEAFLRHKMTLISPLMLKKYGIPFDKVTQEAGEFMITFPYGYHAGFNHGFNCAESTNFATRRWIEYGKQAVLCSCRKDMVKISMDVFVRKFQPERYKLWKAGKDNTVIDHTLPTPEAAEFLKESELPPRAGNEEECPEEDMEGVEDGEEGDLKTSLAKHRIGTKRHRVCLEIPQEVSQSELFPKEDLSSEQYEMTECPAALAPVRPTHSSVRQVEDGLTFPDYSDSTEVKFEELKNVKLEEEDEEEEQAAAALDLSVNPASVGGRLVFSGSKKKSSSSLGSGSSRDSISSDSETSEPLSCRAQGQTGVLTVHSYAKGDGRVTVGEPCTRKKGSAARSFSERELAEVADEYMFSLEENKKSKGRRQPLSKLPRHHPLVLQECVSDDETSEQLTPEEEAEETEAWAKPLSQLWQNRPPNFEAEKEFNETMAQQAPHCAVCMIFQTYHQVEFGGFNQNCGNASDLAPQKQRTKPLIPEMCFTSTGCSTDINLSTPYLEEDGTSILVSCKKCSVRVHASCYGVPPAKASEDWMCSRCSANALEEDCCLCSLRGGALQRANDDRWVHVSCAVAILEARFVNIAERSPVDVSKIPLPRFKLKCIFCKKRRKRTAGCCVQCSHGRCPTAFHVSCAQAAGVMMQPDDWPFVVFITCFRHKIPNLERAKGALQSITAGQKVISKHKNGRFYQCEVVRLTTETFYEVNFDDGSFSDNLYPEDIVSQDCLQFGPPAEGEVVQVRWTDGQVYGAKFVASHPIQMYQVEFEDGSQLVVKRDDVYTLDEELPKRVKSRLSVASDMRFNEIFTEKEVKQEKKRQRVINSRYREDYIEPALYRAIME

Row | SMILES | Potency | activity change, negative = inhibition
1 | Cc1ccc(NC(=O)CC(N)=S)cc1 | active: 8.91 µM | 
2 | Cc1c2cnn(CC(=O)N3CCN(c4ccc(F)cc4)CC3)c(=O)c2c(C)n1Cc1ccccc1F | inconclusive: 44.7 µM [inhibitor, partial curve] | 
3 | O=[N+]([O-])c1cnc(Nc2ccc(Cl)cn2)c([N+](=O)[O-])c1 | inconclusive: 12.6 µM [inhibitor, full curve] | 
4 | CCOC(=O)c1c(C)[nH]c(CCC(=O)NCCCN2CCN(c3ccccc3F)CC2)c1C | inconclusive: 56.2 µM [inhibitor, partial curve, poor fit] | 
5 | CCCCCNCc1cccn1C | inactive | 
6 | Cc1ccc(-c2nn(-c3cc(Cl)ccc3[N+](=O)[O-])c(=O)c3ccccc23)cc1C | inconclusive: 3.16 µM [inhibitor, single point] | 
7 | Cc1sc2ncnc(N3CCC(C(=O)Nc4cc(C(F)(F)F)ccc4OCC(F)(F)F)CC3)c2c1C | inactive | 
8 | CN(C)c1ccc(CNC(=O)Cn2ccc3cc(S(=O)(=O)N4CCCCCC4)ccc32)cc1 | inconclusive: 12.6 µM [inhibitor, partial curve] | 
9 | O=C(c1ccccc1)c1ccccc1N1C(=O)C=CC1=O | active: 17.8 µM | 
10 | COc1ccc(OCC(=O)Nc2ccc(N3CCOCC3)cc2)cc1 | inconclusive: 89.1 µM [inhibitor, partial curve] | 
11 | COc1ccc(C2c3c(ccc4ccccc34)Oc3ncn4nc(Cc5ccccc5)nc4c32)cc1OC (stereo not given) | inactive | 
12 | Cc1ccc(CCNS(=O)(=O)c2ccc3c(c2)NC(=O)C(C)C(=O)N3)cc1 (stereo not given) | inactive | 
13 | CCc1ccccc1NC(=O)CSc1ccsc1[N+](=O)[O-] | inconclusive: 28.2 µM [inhibitor, partial curve] | 
14 | CCN(CC)c1ccc(/C=C/c2cccc[n+]2C)c(OC)c1 | active: 17.8 µM | 
15 | CN(CCO)c1cc(NCCCN2CCC(Cc3ccccc3)CC2)c2nonc2c1[N+](=O)[O-] | inconclusive: 89.1 µM [inhibitor, partial curve] | 
16 | O=C1CC(c2ccco2)c2ccc3ccccc3c2N1 (stereo not given) | inconclusive: 79.4 µM [inhibitor, partial curve] | 
17 | C=CCn1c(-c2cc(-c3ccc(C)cc3)nc3ccccc23)n[nH]c1=S | inconclusive: 56.2 µM [inhibitor, partial curve] | 
18 | COc1ccc(B(O)O)c(CN2CCN(C(=O)OC(C)(C)C)CC2)c1 | inconclusive: 89.1 µM [inhibitor, partial curve, poor fit] | 
19 | Oc1ccc(Cl)cc1N=Cc1sc2ccccc2c1Cl | inconclusive: 89.1 µM [inhibitor, partial curve] | 
20 | O=C(NCc1ccncc1)Nc1ccccc1F | inactive | 
21 | C/C(=N\Nc1nc2c(s1)CCCC2)c1ccc(Cl)cc1 | inconclusive: 11.2 µM [inhibitor, partial curve, poor fit] | 
22 | Cc1ccc(C(=O)CC2(O)C(=O)N(Cc3ccccc3)c3ccccc32)c(C)c1 (stereo not given) | active: 39.8 µM | 
23 | Cc1ccccc1Nc1c(-c2ccccn2)nc2ccccn12 | active: 50.1 µM | 
24 | COC(=O)CC1C(=O)NCCN1C(=O)c1ccccc1 (stereo not given) | inactive | 

Row | SMILES | Potency | activity change, negative = inhibition
25 | NS(=O)(=O)c1ccc(NC(=O)CSc2nc3c(cnn3-c3ccccn3)c(=O)[nH]2)cc1 | inconclusive: 35.5 µM [inhibitor, partial curve] | 
26 | O=C(O)CCSCCC(=O)O | inconclusive: 28.2 µM [inhibitor, full curve, poor fit] | 
27 | COc1ccc2c(c1)OC[C@H]1[C@H]2N2C(=O)c3cc(Cl)ccc3NC(=O)[C@@]2(C)[C@H]1c1ccccc1 | inconclusive: 50.1 µM [inhibitor, partial curve, poor fit] | 
28 | c1ccc(NC2=NCCN2CC2CCCCCC2)cc1 | inactive | 
29 | COc1ccc(NC(=O)CSc2nc3nc(-c4cccs4)cc(C(F)(F)F)c3c(=O)[nH]2)c(OC)c1 | inconclusive: 63.1 µM [inhibitor, partial curve, poor fit] | 
30 | CCOC(=O)c1c(C)[nH]c(C)c1C(=O)CSc1nncs1 |  | inactive: -5.26% [at 11.4 µM]
31 | COc1cc(OC)c(CN2CCN(c3ccc(F)cc3)CC2)cc1Br | active: 2.51 µM | 
32 | COc1ccc(CCNC(=O)c2noc(C)c2[N+](=O)[O-])cc1OC | inactive | 
33 | COc1ccc(OC)c(Nc2c3c(nc4ccccc24)CCC3)c1 | inconclusive: 56.2 µM [inhibitor, partial curve, poor fit] and inconclusive: 39.8 µM [inhibitor, partial curve, poor fit] | 
34 | O=C(c1ccc2c(c1)N(Cc1ccccc1)CCS2)N1CCCCC1 | inconclusive: 50.1 µM [inhibitor, partial curve] | 
35 | COc1ccc(CCN2C(=O)C3C(C2=O)C2C=CC3C23CC3)cc1OC (stereo not given) | inconclusive: 11.2 µM [inhibitor, full curve] | 
36 | COc1ccc(-c2[nH]c(-c3ccc4c(c3)OCO4)nc2-c2ccccc2)cc1 | inconclusive: 17.8 µM [inhibitor, partial curve] | 
37 | NC(=O)c1cc(Br)cc2c3c([nH]c12)CCCC3 | inconclusive: 56.2 µM [inhibitor, partial curve] | 
38 | O=C(CN1C(=O)S/C(=C\c2ccccc2Cl)C1=O)NCCCn1ccnc1 | inconclusive: 11.2 µM [inhibitor, partial curve, poor fit] | 
39 | O=C(N/N=C/c1cccc2nccnc12)c1ccncc1 | active: 56.2 µM | 
40 | O=c1[nH]cnc(CN2CCCCC2)c1O | active: 50.1 µM | 
41 | COc1cccc(Nc2sc(C(=O)c3ccc(Cl)cc3)c(N)c2C(=O)NCCc2ccc(OC)c(OC)c2)c1 | inconclusive: 35.5 µM [inhibitor, partial curve] | 
42 | Cc1ccc(C)c(CN2CCN(c3ncccn3)CC2)c1 | active: 20 µM | 
43 | Oc1ccc(N=Nc2ccc3c(c2)OCCO3)c2ncccc12 | inconclusive: 8.91 µM [inhibitor, full curve] | 
44 | COCCCn1c(=S)[nH]c(C)c(C)c1=O | active: 22.4 µM | 
45 | COc1ccc(NC(=O)c2cc3c(=O)n(C)c4ccccc4c3s2)cc1OC | inconclusive: 89.1 µM [inhibitor, partial curve] | 
46 | O=[N+]([O-])c1cc([N+](=O)[O-])c(N2CCOCC2)cc1NCc1ccccc1 | inconclusive: 15.8 µM [inhibitor, full curve] | 
47 | CCCNC(=O)c1c(N)n(-c2ccc(S(N)(=O)=O)cc2)c2nc3ccccc3nc12 | inconclusive: 56.2 µM [inhibitor, partial curve] | 
48 | CNc1nnc(SCC(=O)c2c(N)n(C3CC3)c(=O)[nH]c2=O)s1 | inactive | 

Row | SMILES | Potency | activity change, negative = inhibition
49 | CSC(C(=O)c1cc2ccccc2o1)c1ccccc1 (stereo not given) | inactive | 
50 | CCOC(=O)c1cnc2nc(Cc3ccccc3)[nH]n2c1=O | inconclusive: 79.4 µM [inhibitor, partial curve] | 
51 | CNc1nc(-c2c[nH]c3ccccc23)cs1 | active: 17.8 µM | 
52 | COc1ccc(OC(C)C(=O)N2CCCc3ccccc32)cc1 (stereo not given) | inactive | 
53 | COc1cc(S(=O)(=O)N2CCn3cccc3C2C)ccc1NC(C)=O (stereo not given) | inconclusive: 44.7 µM [inhibitor, partial curve] | 
54 | CC(C)(C)C(=O)Nc1cc2c3c(c1)CCN3C(=O)CC2 | inactive | 
55 | COc1cc(OC)cc(C(=O)OCC(=O)c2cc(C)n(CC3CCCO3)c2C)c1 (stereo not given) | inconclusive: 12.6 µM [inhibitor, partial curve] | 
56 | COc1ccccc1N1CCN(CC(O)COc2cccc3ccccc23)CC1 (stereo not given) | inconclusive: 56.2 µM [inhibitor, partial curve] | 
57 | COc1ccc(Nc2cc(C)nc(-n3nc(C)cc3C)n2)cc1 | inconclusive: 50.1 µM [inhibitor, partial curve] | 
58 | CS(=O)(=O)c1cccc(-c2nnc(NC(=O)c3ccc4ncsc4c3)o2)c1 | inconclusive: 89.1 µM [inhibitor, single point] | 
59 | OC1(C#CCN2CCCC2)c2ccccc2-c2ccccc21 | inconclusive: 89.1 µM [inhibitor, single point] | 
60 | Cc1ccc(NC(=O)NCc2c(-n3cccc3)sc3c2CCCC3)c(Cl)c1 | inactive | 
61 | CCOc1ccc(NC(=O)CSc2cn[nH]n2)cc1 | inactive | 
62 | CC12CCC=CC1C(c1cccc([N+](=O)[O-])c1)N(Cc1ccccc1)C2=O (stereo not given) | inconclusive: 44.7 µM [inhibitor, partial curve] | 
63 | COc1ccccc1CN(C)C(=O)c1cccc(S(=O)(=O)N2CCCc3ccccc32)c1 | inactive | 
64 | CC(=O)Nc1ccc(NC(=O)C(C)OC(=O)COc2ccc(Nc3ccccc3)cc2)cc1 (stereo not given) | inconclusive: 56.2 µM [inhibitor, partial curve] | 
65 | CC(NC(=O)CSc1nc2c(cc1C#N)CN(C)CC2)c1ccccc1 (stereo not given) | inconclusive: 89.1 µM [inhibitor, partial curve] | 
66 | CC(C)(C)OC(=O)NCc1ccc(CNC(=O)c2[nH]cnc2C(=O)N[C@@H](Cc2ccccc2)C(=O)OCc2ccccc2)cc1 | inactive | 
67 | COc1cc(NC(=O)C2CCN(S(=O)(=O)c3c(C)noc3/C=C/c3c(C)cc(C)cc3C)CC2)cc(OC)c1 | inactive | 
68 | c1ccc2c(c1)oc1c(N3CCOCC3)ncnc12 | inconclusive: 39.8 µM [inhibitor, single point] | 
69 | Cc1ccc(/C=c2\s/c(=C(/C#N)C(=O)N3CCCC3)n(Cc3ccco3)c2=O)s1 | inconclusive: 10 µM [inhibitor, full curve] | 
70 | O=S1(=O)CCN(Cc2ccc(Cl)cc2)CC1 | inconclusive: 22.4 µM [inhibitor, single point] | 
